Assay results from the antibiotic and cytotoxicity screens of Wong et al. (2023).
This is one part of the list.

System: S. aureus RN4220
Assay: growth inhibition call (relative growth <= 0.2)
Conditions: 50 µM

SMILES | growth inhibition call
COc1ccc(S(=O)(=O)N(C)C[C@H]2OCCCC[C@@H](C)Oc3ccc(NC(=O)Nc4ccccc4)cc3C(=O)N([C@@H](C)CO)C[C@@H]2C)cc1 | inactive
Cc1noc(C)c1NC(=O)Nc1ccc2c(c1)C(=O)N([C@H](C)CO)C[C@H](C)[C@H](CN(C)Cc1ccc(Oc3ccccc3)cc1)O2 | inactive
CN1CCN(C(=O)C[C@@H]2CC[C@H]3[C@H](COc4ccc(NC(=O)c5cccs5)cc4C(=O)N3C)O2)CC1 | inactive
O=C(O)c1cccnc1 | inactive
C[C@@H]1CCCCO[C@@H](CN(C)Cc2ccc3c(c2)OCO3)[C@H](C)CN([C@@H](C)CO)C(=O)c2cc(NS(=O)(=O)c3cccs3)ccc2O1 | inactive
CNC[C@H]1Oc2cc(C#CCN(C)C)ccc2S(=O)(=O)N([C@@H](C)CO)C[C@H]1C | inactive
CC(C)(CO)[C@H](O)C(=O)NCCC(=O)NCCSSCCNC(=O)CCNC(=O)[C@H](O)C(C)(C)CO | inactive
COCC(=O)Nc1ccc2c(c1)C(=O)N(C)C[C@H](OC)[C@@H](C)CN(C(=O)Cc1ccccn1)[C@@H](C)CO2 | inactive
C[C@H](CO)N1C[C@H](C)[C@H](CN(C)C(=O)Nc2cccc3ccccc23)Oc2ncc(-c3cccc(F)c3)cc2C1=O | inactive
O=C(C[C@@H]1CC[C@@H](NS(=O)(=O)c2ccccc2)[C@H](CO)O1)NCc1ccncn1 | inactive
COc1ccc(CN(C)C[C@@H]2Oc3ccc(NS(=O)(=O)c4c(C)noc4C)cc3CC(=O)N([C@@H](C)CO)C[C@@H]2C)cc1 | inactive
COc1ccc(NC(=O)Nc2ccc3c(c2)C(=O)N([C@@H](C)CO)C[C@H](C)[C@H](CN(C)S(=O)(=O)c2ccccc2)OCCCC[C@@H](C)O3)cc1 | inactive
C[C@H](CO)N1C[C@H](C)[C@@H](CN(C)C(=O)Nc2ccc(C(F)(F)F)cc2)OCCCC[C@H](C)Oc2ccc(NS(=O)(=O)c3cn(C)cn3)cc2C1=O | active
Cc1noc(C)c1NC(=O)Nc1ccc2c(c1)C(=O)N([C@H](C)CO)C[C@H](C)[C@@H](CN(C)C(=O)Nc1ccc(F)cc1)OCCCC[C@H](C)O2 | inactive
C[C@@H]1CCCCO[C@@H](CN(C)C(=O)Cc2ccccc2)[C@@H](C)CN([C@H](C)CO)C(=O)c2cc(NC(=O)CCC(F)(F)F)ccc2O1 | inactive
COc1ccc(CN(C)C[C@@H]2OCCCC[C@H](C)Oc3ccc(NC(=O)Nc4ccccc4)cc3C(=O)N([C@@H](C)CO)C[C@@H]2C)cc1 | inactive
O=C1C=CC(O)(CC(=O)OC[C@H]2O[C@@H](OC(=O)CC3(O)C=CC(=O)C=C3)[C@H](O)[C@@H](O)[C@H]2O)C=C1 | inactive
C[C@H](CO)N1C[C@H](C)[C@@H](CN(C)C(=O)Nc2ccccc2)OCCCC[C@H](C)Oc2ccc(NS(=O)(=O)c3ccccc3)cc2C1=O | inactive
C[C@H](CO)N1C[C@H](C)[C@H](CN(C)C(=O)c2ccccc2)OCCCC[C@H](C)Oc2ccc(NC(=O)Nc3cccc4ccccc34)cc2C1=O | inactive
